# Results as given in paper PMC4336329 (PLoS ONE, 2015).
# About 14,000 (4.5%) of roughly 310,000 compounds showed an effect of 50% or more. The effect is printed as a negative number. The list shows a part of the results.
# Target: human ether-à-go-go-related gene (hERG) potassium channel (human, UniProt Q12809)
# Test: primary screen, population patch clamp on CHO cells stably expressing hERG
# 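Also: peak tail current of the secondary pulse compared with the same well before compound.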
# human ether-à-go-go-related gene (hERG) potassium channel, sequence (Q12809 whole entry, looked up): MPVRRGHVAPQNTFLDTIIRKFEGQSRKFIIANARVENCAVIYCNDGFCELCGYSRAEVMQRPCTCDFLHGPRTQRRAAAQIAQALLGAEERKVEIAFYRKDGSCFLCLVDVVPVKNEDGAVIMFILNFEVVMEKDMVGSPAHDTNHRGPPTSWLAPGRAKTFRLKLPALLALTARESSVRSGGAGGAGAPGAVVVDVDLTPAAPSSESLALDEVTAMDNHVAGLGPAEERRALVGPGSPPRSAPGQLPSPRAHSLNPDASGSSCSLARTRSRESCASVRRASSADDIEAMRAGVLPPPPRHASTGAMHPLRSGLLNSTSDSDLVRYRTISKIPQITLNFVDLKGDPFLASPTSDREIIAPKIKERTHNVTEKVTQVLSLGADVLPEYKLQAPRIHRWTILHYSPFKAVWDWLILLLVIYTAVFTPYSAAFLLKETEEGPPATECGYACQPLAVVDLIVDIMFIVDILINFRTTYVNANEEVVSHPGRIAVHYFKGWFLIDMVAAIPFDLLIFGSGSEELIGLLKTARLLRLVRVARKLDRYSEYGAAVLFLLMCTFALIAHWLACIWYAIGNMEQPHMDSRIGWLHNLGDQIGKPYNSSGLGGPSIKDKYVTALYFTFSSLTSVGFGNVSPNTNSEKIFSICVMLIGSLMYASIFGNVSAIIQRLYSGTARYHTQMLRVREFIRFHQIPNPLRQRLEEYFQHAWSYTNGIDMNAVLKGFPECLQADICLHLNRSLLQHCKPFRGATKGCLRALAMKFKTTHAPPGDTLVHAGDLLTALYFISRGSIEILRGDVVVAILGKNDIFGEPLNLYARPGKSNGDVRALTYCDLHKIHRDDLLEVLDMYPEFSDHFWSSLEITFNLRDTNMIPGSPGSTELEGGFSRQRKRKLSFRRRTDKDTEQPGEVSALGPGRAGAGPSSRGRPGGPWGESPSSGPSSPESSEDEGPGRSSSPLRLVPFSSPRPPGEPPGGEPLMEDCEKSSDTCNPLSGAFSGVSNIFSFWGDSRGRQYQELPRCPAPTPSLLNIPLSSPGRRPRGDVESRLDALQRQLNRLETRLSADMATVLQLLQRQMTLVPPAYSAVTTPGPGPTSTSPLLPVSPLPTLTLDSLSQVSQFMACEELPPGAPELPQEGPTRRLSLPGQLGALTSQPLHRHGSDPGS
row,Compound,"hERG current change (%, negative = inhibition) at 10uM [%]"
1,C=C1C(=O)O[C@@H]2C[C@@H](C)[C@@H]3C4OC4C(=O)[C@@]3(C)[C@@H](O)[C@H]12 (stereo partly drawn),0.664
2,O=C(/C=C/c1ccco1)NCCc1ccc(F)cc1,17.7
3,Cc1nn(-c2cccc([N+](=O)[O-])c2)c(N)c1-c1ccccc1,-68.7
4,O=S(=O)(Nc1nc2ccccc2[nH]1)c1ccc2ccccc2c1,10.3
5,O=C(Cc1ccc([N+](=O)[O-])cc1)NNC(=O)c1ccc2c(c1)OCO2,-3.15
6,CC1Oc2ccccc2C=C1/C=N/Nc1ccc(C(=O)O)cc1 (stereo not drawn),8.16
7,O=C(Nc1ccccc1C(=O)N1CCCCC1)NC1CCCCC1,-5.88
8,CN1CCN(C(=O)CN2C(=O)CC(C)(C)S(=O)(=O)c3ccccc32)CC1,21.8
9,C#CCN1C(=O)S/C(=C\c2ccc(-c3ccc(C(=O)O)cc3C)o2)C1=O,12.8
10,Cc1ccc(C)c(N2CCN(C(=S)NC3CCCCC3)CC2)c1,-9.3
11,CCOc1ccc2[nH]c(C(=O)N/N=C/c3ccccc3OC)cc2c1,37.4
12,CCc1cccc2c1NC(=O)C21OCCO1,18.8
13,CCc1cccc(C)c1N1C(=O)CC(C)(C)CC1=O,16.5
14,O=C(c1ccc(F)cc1)c1c[nH]c(C(=O)NCCCN2CCOCC2)c1,-21
15,C/C(=N\OC(=O)c1cccc(C(F)(F)F)c1)c1sc(-c2ccccc2)nc1C,7.94
16,COc1ccnc(N=CNOCc2cccc(Cl)c2Cl)c1C#N,-12
17,O=C(O)Cc1ccc(C(=O)c2ccccc2)s1,6.1
18,Cc1ccc(NC(=O)CCC(=O)N/N=C/c2cccs2)cc1,-14.3
19,CCOc1ccc(/C(O)=C2/C(=O)C(=O)N(CCCN3CCOCC3)C2c2ccc(F)cc2)cc1C (stereo not drawn),17.9
20,COc1ccc(NC(=O)CCNS(=O)(=O)c2cc(Br)cnc2N)c(OC)c1,8.51
21,CCOc1cccc(C(=O)Nc2nnc(-c3cccs3)s2)c1,-0.326
22,CC(=O)c1cccc(OCC(O)CN2CCN(C(=O)c3ccco3)CC2)c1 (stereo not drawn),-2.19
23,O=C(O)c1ccc(N2C(=O)CC(SC(=NCc3ccc4c(c3)OCO4)Nc3ccccc3)C2=O)cc1 (stereo not drawn),13.9

row,Compound,"hERG current change (%, negative = inhibition) at 10uM [%]"
1,O=C(OCC(=O)N1CCCC1)c1ccc(Cl)nc1,-2.32
2,O=C1NCCc2cc3c(cc21)OCO3,5.31
3,COc1ccc(-n2c(C)cc(C(=O)COc3ccc(-n4cnnn4)cc3)c2C)cc1,3.05
4,CCCN(C(=O)c1cc(S(=O)(=O)N(C)c2ccc(OCC)cc2)ccc1C)C1CCS(=O)(=O)C1 (stereo not drawn),-27.6
5,CCCNC(=O)CN(Cc1ccco1)S(=O)(=O)c1ccc(OCC)cc1,-36.7
6,COc1ccc(/C=C/C2=NC(=C\N(C)C)/C(=O)O2)cc1,-37.6
7,CC1CCCN(S(=O)(=O)c2ccc(Br)s2)C1 (stereo not drawn),-8.65
8,CCn1c(=O)c(NC(=O)c2ccccc2)c2n(c1=S)CCCCC2,2.77
9,CCCN(CCC)C(=O)C1CCCN1S(=O)(=O)c1cccc2nsnc12 (stereo not drawn),4.27
10,O=C(C1CC(=O)N(C2CCCC2)C1)N1CCN(c2ccc(F)cc2)CC1 (stereo not drawn),-17.7
11,O=C(Nc1ccc2c(c1)OCCO2)c1ccc(Cl)c(S(=O)(=O)N2CCOCC2)c1,-32.3
12,CCC/C=C(\CCC)C(NS(=O)(=O)c1ccc(C(F)(F)F)cc1)c1ccccc1 (stereo not drawn),15.5
13,COc1ccccc1NC(=O)c1ccc(CSc2ncccn2)cc1,6.1
14,Cc1ccccc1OCc1nnc(SCC(=O)Nc2ccc3nc(SCC(=O)Nc4ccccc4)sc3c2)n1C,8.63
15,CCOC(=O)Cc1csc(NC(=O)C(C)Oc2ccc3c(C)cc(=O)oc3c2)n1 (stereo not drawn),-35.2
16,CC1(C)NC(=O)N(CCCOc2ccccc2Br)C1=O,6.22
17,COc1ccc(NC(=O)CC#N)cc1OC,9.19
18,C=CCNC(=S)NNc1nc2c(c(=O)[nH]1)C1(CCCCC1)Cc1ccccc1-2,13.7
19,CC(NC(=O)C1(C)CC1(Br)Br)C(C)(C)C (stereo not drawn),-19.1
20,O=C(NCCc1c[nH]c2ccccc12)C(=O)NCC1OCCN1S(=O)(=O)c1ccc(Cl)cc1 (stereo not drawn),-15.9
21,N#C/C(=C\c1ccc(OC(=O)c2cccs2)cc1)c1nc2ccccc2[nH]1,10.8
22,O=C(Nc1ccccc1C(=O)O)c1ccc2ccccc2n1,18.9
23,Cc1ccc(NC(=S)NC(C)(C)C)c([N+](=O)[O-])c1,13.6

row,Compound,"hERG current change (%, negative = inhibition) at 10uM [%]"
1,Cc1cccc(C(=O)Nc2ccc(C(=O)N/N=C/c3ccc4c(c3)OCO4)cc2)c1,17.4
2,O=c1[nH]n2c(=O)c3c([nH]c2c1N=Nc1cccc(Cl)c1)CCCC3,3.75
3,CCCCOc1ccccc1C(=O)NCCCCCC(=O)O,10.3
4,Cc1ccc(NC(=O)C(C)N2C(=O)c3ccccc3C2=O)cc1 (stereo not drawn),-1.9
5,Cc1ccc(C(=O)N/C(=C/c2cccs2)C(=O)NCCc2c[nH]c3ccccc23)cc1,-29.4
6,CCOc1ccccc1-c1nc(CN2CCCN(C(=O)c3ccco3)CC2)c(C)o1,9.83
7,CCOc1ccc(/C=C/C(=O)NCc2ccccc2)cc1,-1.45
8,N#C/C(=C\c1ccco1)Sc1nc2ccccc2s1,0.525
9,CN(C)CCOC(=O)c1sc2ccccc2c1Cl.Cl,-29.4
10,O=C(c1ccc2c(=O)n(CCc3ccccc3)c(=O)[nH]c2c1)N1CCN(c2ccc(F)cc2)CC1,17.9
11,O=C(OCCOc1ccc(Br)cc1)c1ccc(Cl)nc1,10.8
12,CCOC(=O)C1CCCCN1C(=O)c1ccc2nc(Cc3ccc(OC)cc3)oc2c1 (stereo not drawn),-22.8
13,CCCCN(C(=O)C1CC(=O)N(c2ccc3c(c2)OCCO3)C1)c1c(N)n(CCCC)c(=O)[nH]c1=O (stereo not drawn),-0.054
14,CCCCNC(=O)c1onc(CSc2cc(C)ccc2C)c1C(=O)O,1.55
15,O=C(c1ccccc1)N1CCN(S(=O)(=O)c2cccs2)CC1,-2.06
16,Cn1c2ccccc2c(=O)c2c(=O)n(C3CCCCC3)c(-c3ccco3)nc21,-53.9
17,Cl.N=C(c1ccc([N+](=O)[O-])cc1)N1CCCCC1,-10.9
18,CCCOc1ccc(CCC(=O)N/N=C/c2ccc([N+](=O)[O-])o2)cc1,-19.5
19,O=C1CCCC/C1=C/NCc1ccc(F)cc1,6.07
20,Cc1cc(C)n2nc(C(=O)Nc3ccc4c(c3)OCO4)cc2n1,-4.16
21,Nc1nc(N)c2sc3nc(C(F)(F)F)cc(C(F)(F)F)c3c2n1,-20.2
22,O=C(NC1(C(F)(F)F)NC(=O)N(Cc2cccnc2)C1=O)c1cccs1 (stereo not drawn),0.457
23,CCc1nnc(NC(=O)C2(C)COC(c3ccccc3)OC2)s1 (stereo not drawn),20

row,Compound,"hERG current change (%, negative = inhibition) at 10uM [%]"
1,Cc1ccc(C)c(N(C(=O)c2csnn2)C(C(=O)NC2CCCCC2)c2cccnc2)c1 (stereo not drawn),16.7
2,O=C(COC(=O)C1CCC1)Nc1cccc(S(=O)(=O)N2CCOCC2)c1,2.53
3,CCCN1CCC(NC(=S)Nc2ccc([N+](=O)[O-])cc2)CC1,-52.6
4,CCn1c(CN2CCOCC2)nnc1SCC(=O)Nc1ccccc1C,21.3
5,Cc1ccc(C2=NN(C(=O)CCCC(=O)O)C(c3ccc4c(c3)OCO4)C2)cc1 (stereo not drawn),24.2
6,CCOc1cc(NC(=S)NCC2CCCO2)c(OCC)cc1NC(=O)c1ccc(F)cc1 (stereo not drawn),8.01
7,CCOC(=O)c1c(NC(=O)C2COc3ccccc3O2)sc2c1CC(C)(C)NC2(C)C (stereo not drawn),-12.1
8,CCn1c(NCc2ccc(OC)cc2)nc2ccccc21,-21.7
9,CC(=O)N1c2ccc(S(=O)(=O)N3CCC(C(=O)N4CCN(c5ccccc5F)CC4)CC3)cc2CC1C (stereo not drawn),-10.1
10,Cc1[nH]c2c(Cl)cccc2c1CCN,-0.59
11,O=C(Nc1ccc(F)cc1)N1CCCCCC1,13.3
12,c1ccc2nc(-c3ccc(-n4ccnc4)cc3)ccc2c1,-8.56
13,CCn1nnnc1SCC(=O)Nc1ccc(OCc2ccccc2)cc1,-10.9
14,COC(=O)C1=C(C)N=C2SCCC(=O)N2C1/C=C/c1ccccc1 (stereo not drawn),-16.8
15,COCCNC(=O)Cc1cn(C)c2ccccc12,4.15
16,Nc1nonc1C(=O)NCCNCc1ccccc1,4.52
17,COc1ccc(CN2CCNC(=O)C2CC(=O)NC2CCCC2)c(OC)c1 (stereo not drawn),2.55
18,Oc1ccc(/C=N/Nc2ccnc3cc(Cl)ccc23)cc1O,-0.77
19,COC(=O)C1CCN(C(=O)Nc2ccc(OC)cc2)CC1,1.72
20,O=C(CCc1ccccc1)NC1C2CC3CC(C2)CC1C3 (stereo not drawn),-9.03
21,c1cncc(C2CCCCN2)c1 (stereo not drawn),-6.38
